Measured values taken from PubChem BioAssay AID2100 (National Center for Advancing Translational Sciences (NCATS), 2009).
Hit rate of the full screen: of about 300,000 compounds, about 1,200 (0.4%) were called active. The inconclusive results got no clear call from the source; some entries with a clear call stand among them for comparison. The call rests on the fitted dose curve; in most records, active means well fitted inhibition curve with a large enough effect; inconclusive means small, poorly fitted or top-dose-only effect, or another doubt; inactive means no such curve, though single readings can be large or run the other way. Potencies of inconclusive entries are doubtful fits and often do not repeat.

These compounds were tested against Lysosomal alpha-glucosidase (Homo sapiens) (UniProt P10253) (assay: qHTS Assay for Inhibitors and Activators of Human alpha-Glucosidase Cleavage of Glycogen). Settings: recombinant GAA, glycogen substrate, Amplex Red glucose oxidase fluorescence; activity change, negative = inhibition: at 76.4 µM (top of the series) unless noted.
Outline: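 Recombinant human alpha-glucosidase (4 nM final) hydrolysed bovine liver glycogen (30 ug) for 40 min at 37 C in pH 5.0 citrate/phosphate with 0.01% Tween-20. Released glucose detected by glucose oxidase/Amplex Red, Ex 573/Em 610 nm. Compounds up to 77 uM; AC50 from Hill fits.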
Potency means the concentration at half of the fitted maximal effect.
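Wherever activity change, negative = inhibition is given: 0% = full enzyme reaction and -100% = no-enzyme basal signal.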

Q: O=C(Cc1c(F)cccc1Cl)NCC1CCCO1 (stereo not drawn) was tested. Which Potency did it give?
A: inconclusive: 44.3 µM [inhibitor, partial curve, poor fit]

Q: CCOc1cc(CNc2ccc(N3CCCCC3)cc2)cc(Br)c1OCC(=O)NC(C)(C)C was tested. Which “activity change, negative = inhibition” value did it give?
A: inactive: 8.02%

Q: Which Potency does the source give for COC(=O)c1c(-c2c(Cl)cccc2Cl)noc1C(=O)NN here?
A: inconclusive: 15.7 µM [inhibitor, partial curve]

Q: Which Potency does the source give for CS(=O)(=O)Nc1ccc(N2CCN(c3ccc(C(F)(F)F)cn3)CC2)nc1 here?
A: inconclusive: 14.1 µM [inhibitor, partial curve]

Q: Cc1[nH]n(C(C)(C)C)c(=O)c1Sc1ccccc1 was tested. Which Potency did it give?
A: active: 15.7 µM

Q: O=C(CN(C(=O)Cn1nnc(-c2ccc(F)cc2)n1)C1CCCC1)NC1CCCC1 was tested. Which activity change, negative = inhibition did it give?
A: inconclusive: 25.9% [activator]

Q: For CN(C)CCCN(C(=O)c1ccc([N+](=O)[O-])o1)c1nc2cc3c(cc2s1)OCO3, which “activity change, negative = inhibition” value is on record?
A: inactive: -0.141% [at 76.3 µM]

Q: How did the Potency turn out when Oc1ccccc1/C=N/c1c(-c2ccco2)nc2ccccn12 was run?
A: inconclusive: 39.5 µM [activator, single point]

Q: Which Potency does the source give for CN1/C(=C/C2CC(=O)N(c3cccc4ccccc34)C2=O)C(C)(C)c2ccccc21 (stereo not drawn) here?
A: inconclusive: 28.2 µM [inhibitor, partial curve]

Q: With COCC(C)NC(=O)NC1(C(F)(F)F)Oc2ccc(Cl)cc2O1 (stereo not drawn) as the compound, how does the Potency read?
A: inconclusive: 12.5 µM [inhibitor, partial curve, poor fit]

Q: How did the Potency turn out when CCc1cc(-c2n[nH]c(C)c2-c2nc3ccccc3n2C)c(O)cc1O was run?
A: inconclusive: 31.6 µM [inhibitor, single point]

Q: How did the “activity change, negative = inhibition” value turn out when Cc1cccc(N2CCN(C(=O)Cn3ncc4c3-c3cc(C)ccc3OC4)CC2C)c1 (stereo not drawn) was run?
A: inactive: -8.51% [at 76.3 µM]

Q: CCOc1ccc(NCc2cccn2-c2nnc(N3CCC(C(=O)NCCCN4CCCCC4CC)CC3)s2)cc1 (stereo not drawn) was tested. Which Potency did it give?
A: inconclusive: 50.1 µM [inhibitor, single point]

Q: CCc1cccc(CC)c1NC(=O)c1c(C)oc2ccc(O)c(CN3CCN(C)CC3)c12 was tested. Which “activity change, negative = inhibition” value did it give?
A: inactive: -5.16% [at 76.3 µM]

Q: How did the Potency turn out when O=C(CNc1ccccc1)NNC1=NCCC1 was run?
A: inconclusive: 28 µM [inhibitor, single point]

Q: With C/C(CC(=O)Nc1ccc(N(C)C)cc1)=N\NC(=O)c1ccccc1O as the compound, how does the Potency read?
A: inconclusive: 31.6 µM [inhibitor, partial curve]

Q: How did the Potency turn out when O=C(O)CC/C(=N\Nc1ccccc1[N+](=O)[O-])c1cccs1 was run?
A: inconclusive: 15.8 µM [inhibitor, partial curve]

Q: Which Potency does the source give for N#Cc1nc(-c2ccc(COc3ccccc3)o2)oc1NCc1cccnc1 here?
A: inconclusive: 28.2 µM [inhibitor, partial curve]

Q: O=C(O)CSc1nnc(-c2ccncc2)n1C1CCCCC1 was tested. Which Potency did it give?
A: inconclusive: 1.26 µM [inhibitor, full curve, poor fit]

Q: Which Potency does the source give for Cc1cccc(Nc2nc(-c3ccc(O)cc3O)cs2)n1 here?
A: active: 39.8 µM

Q: For COc1cccc(CNc2ccc(F)c([N+](=O)[O-])c2)c1O, which Potency is on record?
A: inconclusive: 15.8 µM [inhibitor, single point]

Q: For Cc1cc(N2CCOCC2)nc2ccc(NC(=S)N3CCN(Cc4ccccc4)CC3)cc12, which Potency is on record?
A: inconclusive: 11.1 µM [inhibitor, partial curve]

Q: With CC(=O)NS(=O)(=O)c1ccc(N=c2ssc3c2-c2cc(C)ccc2NC3(C)C)cc1 as the compound, how does the Potency read?
A: inconclusive: 12.5 µM [inhibitor, partial curve]

Q: With CC(=O)Nc1cccc(N2CCCC2=O)c1 as the compound, how does the Potency read?
A: inconclusive: 35.5 µM [inhibitor, single point]

Q: For CCN1CCN(c2cc(C)c3cc(NC(=S)N(C)Cc4ccccc4)ccc3n2)CC1, which Potency is on record?
A: inconclusive: 35.5 µM [inhibitor, partial curve]

Q: Cc1noc2c1C(c1ccc(N(C)C)cc1)C1=C(CC(C)(C)CC1=O)N2 (stereo not drawn) was tested. Which Potency did it give?
A: inconclusive: 4.43 µM [inhibitor, partial curve]

Q: With O=C(/C=C/Nc1ccc(Br)cc1F)c1ccco1 as the compound, how does the “activity change, negative = inhibition” value read?
A: inactive: 21.1%

Q: For COc1cccc(NC(=O)NNC(=O)CCc2ccc(O)c(O)c2)c1, which Potency is on record?
A: inconclusive: 50.1 µM [inhibitor, partial curve, poor fit]

Q: Which “activity change, negative = inhibition” value does the source give for O=C(CN1C(=O)COc2ccc(S(=O)(=O)N3CCCCCC3)cc21)Nc1cccc(Cl)c1 here?
A: inactive: 6.09% [at 76.3 µM]

Q: With N#Cc1nc(-c2ccc(OCc3ccccc3)cc2)oc1NCCCn1ccnc1 as the compound, how does the Potency read?
A: inconclusive: 35.5 µM [inhibitor, partial curve]

Q: With Cc1c(-c2ccccc2)sc(N)c1C(=O)N1CCOCC1 as the compound, how does the Potency read?
A: inconclusive: 39.8 µM [inhibitor, single point]

Q: COc1ccc(NC(=O)CCS(=O)(=O)c2nc(-c3ccc4c(c3)OCO4)cc(C(F)(F)F)n2)cc1 was tested. Which Potency did it give?
A: inconclusive: 56.2 µM [inhibitor, partial curve, poor fit]

Q: How did the “activity change, negative = inhibition” value turn out when COC(=O)CSC1=C(C#N)C(c2ccccc2F)CC(=O)N1 (stereo not drawn) was run?
A: inactive: 7.34%

Q: With CC(C)NC(=O)NC(=O)COC(=O)c1cccc(S(=O)(=O)N2CCCCC2)c1 as the compound, how does the “activity change, negative = inhibition” value read?
A: inactive: 0.751%

Q: Which Potency does the source give for Cc1ccc(OCc2cc(C(=O)N(C)CC3CCOCC3)no2)cc1C here?
A: inconclusive: 6.31 µM [inhibitor, single point]

Q: How did the Potency turn out when CC1=CC(=Nc2c(C)n(C)n(-c3ccccc3)c2=O)C=C(C)C1=O was run?
A: inconclusive: 35.5 µM [inhibitor, partial curve]

Q: For Nc1ccc(O)c(-c2nc3ccccc3s2)c1, which Potency is on record?
A: inconclusive: 17.6 µM [activator, partial curve]

Q: Which “activity change, negative = inhibition” value does the source give for Cc1[nH]n2c(=O)cc(-c3ccc(Cl)cc3)nc2c1-c1ccccc1 here?
A: inactive: 13.6% [at 76.3 µM]

Q: How did the Potency turn out when O=C(N/N=C/c1ccc(O)c(O)c1O)/C(=C/c1ccc([N+](=O)[O-])cc1)NC(=O)c1ccccc1 was run?
A: inconclusive: 25.1 µM [inhibitor, partial curve, poor fit]

Q: With CC(C)(C)C(=O)[C@@H]1[C@@H]2C(=O)N(C3CCCCC3)C(=O)[C@@H]2[C@H]2c3ccccc3C=CN12 as the compound, how does the Potency read?
A: inconclusive: 19.8 µM [activator, partial curve]

Q: Which “activity change, negative = inhibition” value does the source give for N#Cc1c(N)sc(=S)c2c1CCCCC2 here?
A: inactive: -10.7%

Q: How did the Potency turn out when C=CCNC(=S)NNC(=O)c1cc(-c2cccnc2)nc2ccccc12 was run?
A: inconclusive: 25.1 µM [inhibitor, partial curve]

Q: COc1ccc(NC(=S)Nc2cc(-c3ccccc3)[nH]n2)cc1Cl was tested. Which Potency did it give?
A: inconclusive: 24.9 µM [inhibitor, single point]

Q: With CC/C(=N\Nc1ccc([N+](=O)[O-])cc1)c1ccccc1 as the compound, how does the Potency read?
A: inconclusive: 50.1 µM [inhibitor, single point]

Q: How did the “activity change, negative = inhibition” value turn out when O=C(O)CCc1ccc(S(=O)(=O)N2CCOCC2)cc1 was run?
A: inactive: -8.67%

Q: How did the Potency turn out when COc1ccc(NC(=S)NNC(=O)OC(C)(C)C)cc1OC was run?
A: inconclusive: 25.1 µM [inhibitor, partial curve]

Q: Which “activity change, negative = inhibition” value does the source give for COc1cccc(-n2cc(C(=O)Nc3cccc(C(F)(F)F)c3)c3ccccc3c2=O)c1 here?
A: inactive: 6.48% [at 76.3 µM]

Q: With O=C(Nc1ccccc1)Oc1ccc[nH]c1=O as the compound, how does the Potency read?
A: inconclusive: 8.84 µM [inhibitor, full curve]

Q: With CCCC[C@]12Cc3cc(OC)c(OC)cc3C(O1)C1=C(O2)C(=O)c2ccccc2C1=O as the compound, how does the activity change, negative = inhibition read?
A: inactive: 8.78% [at 15.3 µM]

Q: For CCc1ccc(NS(=O)(=O)c2ccc3oc(=O)c4ncn(CC)c4c3c2)cc1, which “activity change, negative = inhibition” value is on record?
A: inactive: 3.1% [at 76.3 µM]

Q: Which Potency does the source give for COc1ccc(N=Cc2sc3ccccc3c2Cl)cc1 here?
A: inconclusive: 31.6 µM [inhibitor, single point]

Q: COCCCNC(=S)N/N=C/c1ccc(O)cc1 was tested. Which Potency did it give?
A: active: 31.6 µM

Q: How did the Potency turn out when O=[N+]([O-])c1cccc(/C=N/NC2=NS(=O)(=O)c3ccccc32)c1 was run?
A: inconclusive: 3.52 µM [inhibitor, full curve]

Q: For COc1ccc(-n2c(=O)c3ccccc3n(CC(=O)Nc3cc(C)on3)c2=O)cc1OC, which Potency is on record?
A: inconclusive: 3.98 µM [inhibitor, full curve, poor fit]

Q: Oc1ccc(/C=N/Nc2ncc(Cl)cc2Cl)cc1 was tested. Which Potency did it give?
A: inconclusive: 7.08 µM [inhibitor, single point]

Q: With CCc1ccc(NC(=O)CCS(=O)(=O)c2cc3c(cc2Cl)NC(=O)CO3)cc1 as the compound, how does the “activity change, negative = inhibition” value read?
A: inactive: 7.29% [at 76.3 µM]

Q: With NC(=S)N/N=C/c1coc2cc(Cl)ccc2c1=O as the compound, how does the Potency read?
A: inconclusive: 17.6 µM [inhibitor, partial curve]

Q: How did the Potency turn out when Cc1[nH]n(-c2ccccc2)c(=O)c1C(c1cc(Cl)ccc1O)c1c(C)[nH]n(-c2ccccc2)c1=O was run?
A: inconclusive: 25.1 µM [inhibitor, single point]

Q: With Cc1cccc(NC2=Nc3ccccc3N3C2=Nc2c(c(C)nn2-c2ccccc2)C3c2ccc(O)c(O)c2)c1 (stereo not drawn) as the compound, how does the Potency read?
A: inconclusive: 31.4 µM [inhibitor, single point]

Q: Which Potency does the source give for C/C(=N/NC(=O)c1cc(Cl)ccc1O)C12CC3CC(CC(C3)C1)C2 here?
A: inconclusive: 24.9 µM [inhibitor, single point]

Q: With CCOC(=O)c1c(-c2ccc(C)o2)csc1NC(=O)CN1CCC(C(N)=O)CC1 as the compound, how does the “activity change, negative = inhibition” value read?
A: inactive: -6.54%

Q: How did the Potency turn out when CCc1cccc(C)c1Nc1c(-c2ccc(SC)cc2)nc2sccn12 was run?
A: inconclusive: 31.6 µM [inhibitor, single point]

Q: With Cc1ccc(C)n1-c1ccc(-c2nnc3n2CCCCC3)s1 as the compound, how does the Potency read?
A: active: 35.5 µM

Q: Which Potency does the source give for COc1cc(NC(=S)NCc2ccco2)c(OC)cc1Cl here?
A: inconclusive: 28.2 µM [inhibitor, single point]

Q: With CC(=O)c1ccccc1OCC(O)CN1CCN(C(c2ccccc2)c2ccccc2)CC1 (stereo not drawn) as the compound, how does the Potency read?
A: inconclusive: 39.5 µM [inhibitor, partial curve, poor fit]

Q: Which “activity change, negative = inhibition” value does the source give for COc1cc(CNc2ccc3[nH]c(=O)[nH]c3c2)cc(Cl)c1OCC(=O)NC(C)(C)C here?
A: inactive: -18.5%

Q: Which Potency does the source give for Oc1ccc(/C=N/NC(=S)NC2CC3CCC2C3)cc1 (stereo not drawn) here?
A: inconclusive: 31.6 µM [inhibitor, partial curve]

Q: With S=C(Nc1ccc2nccnc2c1)N1CCOCC1 as the compound, how does the Potency read?
A: inconclusive: 22.4 µM [inhibitor, partial curve]
